Results: ChEMBL document CHEMBL1157539, “Thousands of chemical starting points for antimalarial lead identification” (Nature, 2010)
The full ranking holds about 13,000 compounds; the median of “IFI” is about 4, and the highest 2% start at about 17. This is one part of the list.

Assay: GSK_TCMDC: Inhibition Frequency Index (IFI). The number of non-kinase HTS assays where a compound showed > 50 % inhibition, expressed as a percentage of the number of such assays in which the compound was tested (-0 is zero)
Assay type: functional

SMILES	IFI [%]
Cc1cc(NC(=O)c2cccs2)ccc1OC1CCN(Cc2ccccc2)C1 (stereo unspecified)	3.13
O=C(Nc1ccc(Cl)c(Cl)c1)N1CCc2cc3nccc(N4CCN5CCC[C@H]5C4)c3cc21	2.11
CN1CCN(c2ccc(CNc3ccc4ncc(-c5cccc(OC(F)(F)F)c5)n4n3)cc2)CC1	3.82
O=C(Nc1cccc(-c2ccc(-c3nc4cc(C(F)(F)F)ccc4[nH]3)cc2)c1)c1cccnc1	5.56
COCC(C)n1c(C)cc(C(=O)CSc2nnc(Nc3ccccc3)s2)c1C (stereo unspecified)	0.73
CC(O)C1CCCCN1C(=O)c1cccc(-c2cccc(-c3nc4cc(C(F)(F)F)ccc4[nH]3)c2)c1 (stereo unspecified)	8.41
OCCc1ccc(Nc2nccc(-c3nnc4ccccn34)n2)cc1	8.53
COc1ccc(CCn2c(=N)c(C(=O)NCc3ccccc3)cc3c(=O)n4ccccc4nc32)cc1	1.74
COC(=O)Cn1c(C2CCN(CC3CCC(NC(=O)/C=C/c4ccc(Cl)c(Cl)c4)CC3)CC2)nc2ccccc21 (stereo unspecified)	2.14
O=C(Nc1cccc(Cl)c1)OC1CCCN2CCCCC12 (stereo unspecified)	0
O=C(NCCCCCN1CCC(c2c[nH]c3ccccc23)CC1)c1ccc(-c2cccnc2)cc1	4.76
O=C(Nc1cccc(-c2cccc(F)c2)c1)C1CCN(Cc2ccc(O)cc2)CC1	2.38
CCCCc1ccc(-c2nc(NC(=O)Nc3[nH]c(-c4ccccc4)nc3C(=O)OCC)c(C(=O)OCC)[nH]2)cc1	3.73
CN(C)CCCN1CCN(Cc2ccc(-c3ccc(-c4nc5ccccc5[nH]4)s3)cc2)CC1	4.88
CCc1c(CCNCCCC(C)CCNCCc2ccc(OC)c(OC)c2CC)ccc(OC)c1OC (stereo unspecified)	6.57
CCN(CCO)CCc1cccc(Nc2nccc(-c3c(-c4ccc(NC(=O)C(C)(C)C)cc4)nn4ccccc34)n2)c1	7.14
COc1cc(NC(=O)N2CCc3ccc(OCCC4CCCN4C)cc32)cc(C(F)(F)F)c1 (stereo unspecified)	5.11
CCOc1ccc(NC(C)=O)c(O)c1	-0
Cc1ccc2cc(NC(=O)CCCCCCCON3C(N)=NC(N)=NC34CCCCC4)ccc2n1	0.78

SMILES	IFI [%]
CCNc1cc(C(=O)N[C@@H](Cc2ccccc2)[C@H](O)CNC(C)CCCC(C)C)cc(N2CCCS2(=O)=O)c1 (stereo partly specified)	0.72
CN1CCC(N2CCN(Cc3ccc(-c4ccc(-c5nc6cc(F)ccc6[nH]5)s4)cc3)CC2)CC1	8.33
CN1CCC(Oc2ccc(CN3CC[C@H](NC(=O)c4ccc(Cl)c(F)c4)C3)c3ccccc23)C1 (stereo partly specified)	8.84
Cc1cc(O)c(-c2cc(C(=O)Nc3cccnc3)[nH]n2)cc1C	4.17
CCOc1cc(C(=O)Nc2ccc(-c3nc4ccccc4[nH]3)cc2)cc(OCC)c1OCC	1.67
CC(C)NCc1cccc(-c2cccc(-c3nc4cc(F)ccc4[nH]3)c2)c1	3.85
O=C(/C=C/c1ccc(Cl)c(Cl)c1)N1CCC(CCCN2CCC(c3c[nH]c4ccccc34)CC2)CC1	12.2
COc1cc(Nc2nccc(N3CCC(NS(=O)(=O)c4ccc(NC(C)=O)cc4)CC3)n2)cc(OC)c1OC	3.08
C=C[C@]1(C)C[C@@H](OC(=O)NC(=O)CCCS(=O)(=O)c2nnc(C)s2)[C@]2(C)[C@H](C)CC[C@]3(CCC(=O)[C@H]32)[C@@H](C)[C@@H]1O	2.14
CC(=O)Nc1nc(C(=O)Nc2cccc(-c3ccc(-c4nc5cccc(C)c5[nH]4)cc3)c2)cs1	6.09
CN1CC(c2ccccc2)c2cc(O)c(CN3CCCCC3)cc2CC1Cc1ccccc1 (stereo unspecified)	1.53
Cc1nc(C)c(-c2ccc(Oc3ccc([S+](C)[O-])cc3)cc2)c(O)c1Br (stereo unspecified)	0.77
Cc1ccccc1C1CCN(C2CCC(NC(=O)/C=C/c3c(F)ccc(F)c3F)CC2)CC1 (stereo unspecified)	6.67
CCCCCCCCn1c2c(c(=N)c3c1CCC3)CCCC2	16.7
CC(CN1CCN(CC(c2ccc(F)cc2)N2CCN(C)CC2)CC1)C(=O)c1ccc(O)cc1 (stereo unspecified)	0.82
O=C(O)c1ccc2nc(-c3ccccn3)c(-c3ccccn3)nc2c1	-0
OC(CNc1ccnc(Nc2ccc(Cl)cc2)n1)c1cccc(C(F)(F)F)c1 (stereo unspecified)	16.3
N#Cc1ccc(C=NNc2nc3ccccc3[nH]2)cc1	0.71
Cc1ccc(NC(=O)Nc2cccc(Cl)c2)cc1-c1ccc(C(=O)Nc2ccncc2)cc1	25.4

SMILES	IFI [%]
COc1ccccc1C1CCN(C2CCC(NC(=O)/C=C/c3cc(F)c(F)cc3F)CC2)CC1 (stereo unspecified)	4.84
CC1(CCc2ccccc2)N=C(Nc2ccc(Cl)cc2)N=C(N)C1c1ccc(Cl)c(Cl)c1 (stereo unspecified)	26.6
CNC(=O)c1ccccc1Nc1nc(Nc2ccc(CCN3CCN(C)CC3)cc2)ncc1Cl	15.4
COc1cc2ncnc(Nc3ccc(OCc4ccccc4Br)c(OC)c3)c2cc1OC	-0
Oc1cccc(CNCCCN(Cc2ccccc2)c2ccccc2)c1	4.29
CC(=O)Oc1c(Br)c(C)nc(C)c1-c1ccc(Oc2ccc(OC(F)(F)F)cc2)cc1	4.76
CCCCCC(C)N/C(=N/c1ccccc1Br)Nc1ccc(C#N)cc1O (stereo unspecified)	0.76
Cc1cc(NC(=O)Nc2ccc3nc(C)oc3c2)c2cc(Cl)ccc2n1	1.43
Cc1oc(-c2ccc(Cl)cc2)cc1C(=O)NCCC1CCN(CCCCCNC(=O)/C=C/c2ccc(Cl)c(Cl)c2)CC1	16.6
COC(=O)c1ccc(N2CCN(CCCCNC(=O)c3ccc(NC(=O)c4ccc(Cl)cc4)cc3)CC2)c(OC)c1	1.87
CCCCn1c(Sc2ccc(C#N)c([N+](=O)[O-])c2)nnc1-c1cc(OC)cc(OC)c1	4.23
COc1ccc(-c2nnc(Sc3ccc(C#N)c([N+](=O)[O-])c3)n2CC(C)C)cc1	2.11
Cc1cc(C(F)(F)F)n2nc(C(=O)N(Cc3cncn3Cc3cccc(F)c3)CC3CC3)cc2n1	2.67
c1cn(CCCNc2ncc(-c3ccsc3)c(-c3nccs3)n2)cn1	2.25
Cc1cccc2nc(-c3cccc(-c4ccc(NC(=O)Nc5ccsc5)cc4)c3)[nH]c12	7.84
CN(C)C(CNC(=O)c1cc(-c2ccncc2)c(-c2ccc(NC(=O)Nc3cccc(Cl)c3)cc2)o1)c1ccccc1 (stereo unspecified)	8.11
O=C(Nc1cccc(-c2cccc(CN3CCCC3)c2)c1)c1cccc(Cl)c1	4.9
CN1CCC(Oc2ccc(CN3CC[C@H](NC(=O)c4cccc(C#N)c4)C3)c3ccccc23)C1 (stereo partly specified)	2.11
